Results from PubChem BioAssay AID2675 (National Center for Advancing Translational Sciences (NCATS), 2010).
Among all 280,000 compounds or so, about 100 (0.036%) were called active. This list was built around the results that the source calls inconclusive (neither active nor inactive); the mix of calls is not that of the screen. The call rests on the fitted dose curve; in most records, active means well fitted inhibition curve with a large enough effect in the signal ratio, with a control signal flat (not every such curve was filed as active); inconclusive means small, poorly fitted or top-dose-only effect, or effect the other way, or a change in a side signal; inactive means no such curve, though single readings can be large or run the other way; the % refers to the signal ratio. Where the call is inconclusive, the potency comes from a doubtful curve fit. A note “side channel” means that the fit belongs to a control or component signal, not to the main read-out.

molecular target: Muscleblind-like protein 1 (Homo sapiens) (UniProt Q9NR56); experiment: qHTS Assay for Inhibitors of MBNL1-poly(CUG) RNA binding; conditions: TR-FRET MBNL1-His/biotin-(CUG)12 binding, 665/545 ratio; series mostly up to 57.5 µM
Outline: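 TR-FRET readout: Ex 340 nm, 665/545 nm emission ratio, normalized to buffer-only (basal) and MBNL1-(CUG)12 controls. Complex of MBNL1-His with Biotin-(CUG)12, compounds 92 nM–58 uM, incubated 60 min at room temperature.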
Potency means the concentration at half of the fitted maximal effect; tags describe the fitted curve by direction and shape or compound fluorescence and quenching.

Chain of UniProt Q9NR56 (Q9NR56 whole entry, looked up): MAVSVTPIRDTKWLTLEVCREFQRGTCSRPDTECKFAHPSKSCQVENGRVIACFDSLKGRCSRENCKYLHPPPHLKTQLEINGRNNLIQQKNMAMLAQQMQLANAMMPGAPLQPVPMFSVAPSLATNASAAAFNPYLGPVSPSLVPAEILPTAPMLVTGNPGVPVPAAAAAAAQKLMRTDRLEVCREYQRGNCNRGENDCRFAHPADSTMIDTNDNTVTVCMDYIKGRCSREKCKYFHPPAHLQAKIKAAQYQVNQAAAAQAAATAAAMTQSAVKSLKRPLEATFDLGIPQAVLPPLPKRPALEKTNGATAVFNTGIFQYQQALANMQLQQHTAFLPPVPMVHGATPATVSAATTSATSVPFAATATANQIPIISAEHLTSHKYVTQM

SMILES | Potency
CCN(CC)c1ccc(C2=NNC(=O)CC2C)cc1[N+](=O)[O-] (stereo not drawn) | inconclusive: 14.1 µM [quencher, side channel, partial curve]
NS(=O)(=O)c1ccc(NC(=O)COC(=O)C2(c3ccccc3F)CCCC2)cc1 | inconclusive: 0.141 µM [quencher, side channel, partial curve, poor fit]
CCOC(=O)Nc1n[nH]c(NC(=O)OCC)c1[N+](=O)[O-] | inconclusive: 31.6 µM [quencher, side channel, single point]
CC1=NN(C(N)=S)C(=O)C1N=Nc1ccccc1 (stereo not drawn) | inconclusive: 2.51 µM [quencher, side channel, full curve]
COC(=O)C1C(=O)C(C(=O)c2ccc([N+](=O)[O-])cc2)C(=O)CC1(C)C (stereo not drawn) | inconclusive: 17.8 µM [quencher, side channel, partial curve]
CCOc1ccc(-c2c(C#N)c(N)nc3sc(C(=O)c4ccccc4)c(N)c23)cc1 | inactive
CCN(CC)C(=O)c1cccc2nc3ccccc3nc12 | inconclusive: 12.6 µM [quencher, side channel, partial curve]
C/C(=N\Nc1ccc(S(N)(=O)=O)cc1[N+](=O)[O-])c1cccs1 | inconclusive: 1.78 µM [quencher, side channel, full curve]
CCCN(CCC)Cc1cc2ccccc2c2c1COC2 | inactive
O=C(N/N=C/c1ccc(Br)o1)c1ccc2c(c1)OCCO2 | inconclusive: 28.2 µM [quencher, side channel, partial curve]
COc1cc(/C=N/NC(=O)c2nonc2C)ccc1O | inconclusive: 35.5 µM [quencher, side channel, single point]
Cc1cccc(C)c1NC(=O)N1CCN(C2CCCCC2)CC1 | inconclusive: 11.2 µM [fluorescent, side channel, partial curve, poor fit]
O=[N+]([O-])c1ccccc1/C=N\N1CCN(c2ccccc2)CC1 | inconclusive: 31.6 µM [quencher, side channel, single point]
c1ccc2c(c1)[nH]c1nc(SCCN3CCOCC3)nnc12 | inconclusive: 11.2 µM [quencher, side channel, partial curve]
CCc1nnc2n1N=C(c1cccc([N+](=O)[O-])c1)CS2 | inconclusive: 3.16 µM [quencher, side channel, full curve]
CCc1c(C)nc(SCC(=O)Nc2ccc3c(c2)OCCO3)[nH]c1=O | inconclusive: 3.55 µM [inhibitor, full curve, poor fit]
CC(=O)c1cnc(Nc2cccc(C)c2)s1 | inconclusive: 25.1 µM [quencher, side channel, partial curve]
O=C1c2ccccc2C(=O)c2cc(NC(=O)C3CC3)ccc21 | inconclusive: 2 µM [quencher, side channel, full curve]
COc1ccc(S(=O)(=O)Oc2c(OC)cc(C(=S)N3CCOCC3)cc2OC)cc1 | inactive
CC(NC(=O)/C(C#N)=C/c1cccs1)c1ccccc1 (stereo not drawn) | inconclusive: 22.4 µM [quencher, side channel, single point]

SMILES | Potency
COc1cc([N+](=O)[O-])ccc1NC(=O)CC(C)C | inconclusive: 25.1 µM [quencher, side channel, partial curve, poor fit]
COC(=O)c1[nH]c2ccccc2c1NC(=O)CN1CCCCCC1 | inactive
O=C(CCc1ccccc1)NNC(=O)COc1ccccc1Cl | inconclusive: 0.708 µM [fluorescent, side channel, single point]
CCOC(=O)C1=C(C)NC2=C(C(=O)c3ccccc32)C1c1ccc(O)cc1 (stereo not drawn) | inconclusive: 25.1 µM [quencher, partial curve]
CCC(=O)Nc1ccc(C(=O)NNC(=O)c2ccc([N+](=O)[O-])cc2)cc1 | inconclusive: 39.8 µM [quencher, side channel, single point]
CCn1c(/C=C2/C(=O)N(C)c3ccccc32)nc2ccccc2c1=O | inconclusive: 12.6 µM [quencher, side channel, partial curve]
OCCC1CN(Cc2ccc(F)cc2)CCN1CCc1ccccc1 (stereo not drawn) | inactive
O=C(NN1C(=O)c2ccc(-c3ccc4c(c3)C(=O)N(NC(=O)c3cccnc3)C4=O)cc2C1=O)c1cccnc1 | inconclusive: 39.8 µM [quencher, single point]
CCn1c2ccccc2c2nnc(SCCN3CCOCC3)nc21 | inconclusive: 25.1 µM [quencher, side channel, partial curve]
COCCNC(=O)/C(C#N)=C/c1c(N2CCN(c3ccc(OC)cc3)CC2)nc2c(C)cccn2c1=O | inconclusive: 7.08 µM [quencher, side channel, full curve]
COc1ccc2[nH]c3c(c2c1)CCNC3c1ccc([N+](=O)[O-])o1 (stereo not drawn) | inconclusive: 25.1 µM [quencher, side channel, partial curve]
C=CCn1c(Cc2ccc(OC)cc2)nnc1SCC(=O)c1cccc([N+](=O)[O-])c1 | inconclusive: 7.08 µM [quencher, side channel, partial curve]
Cc1ccccc1NC(=S)Nc1ccc(Br)cc1 | inconclusive: 0.1 µM [fluorescent, side channel, full curve, poor fit]
CN(C)c1ccc(/C=N/NC(=O)C2CC2c2ccccc2)cc1 (stereo not drawn) | inconclusive: 31.6 µM [quencher, side channel, single point]
COc1ccc(OC)c(NC(=O)CSc2nnc3ccc(-c4ccncc4)nn23)c1 | inconclusive: 20 µM [quencher, side channel, partial curve]
O=C(NCC1CCCO1)c1cccc(Oc2c(Cl)cccc2[N+](=O)[O-])c1 (stereo not drawn) | inconclusive: 3.55 µM [quencher, side channel, full curve]
O=C(NC(=S)Nc1ccc(CN2CCOCC2)cc1)c1ccc([N+](=O)[O-])cc1 | inconclusive: 3.55 µM [quencher, side channel, full curve, poor fit]
S=C(NCC1CCCO1)c1ccc(Br)cc1 (stereo not drawn) | inactive
O=C(N/N=C/c1cn[nH]c1-c1ccc(Cl)cc1)c1ccc([N+](=O)[O-])cc1 | inconclusive: 15.8 µM [quencher, side channel, partial curve]
O=C(Oc1cccc(C(=S)N2CCOCC2)c1)c1cccc([N+](=O)[O-])c1 | inconclusive: 10 µM [quencher, side channel, partial curve]

SMILES | Potency
Cc1cc([N+](=O)[O-])cnc1Sc1nccn1C | inconclusive: 6.31 µM [quencher, side channel, partial curve]
CC(C(=O)Nc1cc([N+](=O)[O-])ccc1Cl)N1CCN(c2ccc(O)cc2)CC1 (stereo not drawn) | inconclusive: 14.1 µM [quencher, side channel, partial curve]
COc1cc(/C=C/C(=O)OCC(=O)N2CC(=O)Nc3ccccc32)ccc1O | inconclusive: 12.6 µM [quencher, side channel, partial curve]
CCOC(=O)c1cc2ccc3ccccc3c2oc1=O | inconclusive: 25.1 µM [quencher, side channel, partial curve]
O=[N+]([O-])c1ccc(-c2csc(NN=C3CCCC3)n2)cc1 | inactive
Cc1ccc(-n2c(SCC(=O)O)nc3sc4c(c3c2=O)C(C)CCC4)cc1 (stereo not drawn) | inconclusive: 39.8 µM [quencher, side channel, single point]
O=C(CCC(=O)N1CCc2ccccc2C1)N1CCN(S(=O)(=O)c2ccccc2)CC1 | inconclusive: 0.126 µM [quencher, side channel, full curve, poor fit]
Cc1oc2nc(SCCCC(=O)NCCO)nc(N)c2c1C | active: 20 µM
COc1ccccc1S(=O)(=O)Nc1ccc(-c2nnc3n2CCCCC3)cc1 | inactive
COc1cc2c(cc1OC)CN(c1ccc(C(N)=O)cc1[N+](=O)[O-])CC2 | inconclusive: 14.1 µM [quencher, side channel, partial curve]
COc1cc(CNCc2ccc3c(c2)OCO3)c([N+](=O)[O-])cc1OC | inconclusive: 31.6 µM [quencher, side channel, partial curve]
CCOC(=O)c1[nH]c(=O)[nH]c1CSc1nc(C)cc(C)n1 | inactive
O=C1CC(=C(c2ccccc2)c2ccccc2)C(=O)N1CCN1CCN(c2cccc(Cl)c2)CC1 | inactive
Cc1ccc2nc(SCCC(=O)O)cc(C)c2c1 | inconclusive: 15.8 µM [quencher, side channel, single point]
COc1ccc(CCNC(=O)CCNS(=O)(=O)c2cccc3nonc23)cc1OC | inconclusive: 10 µM [quencher, side channel, partial curve]
Cc1ccc(C(=O)Cn2nnc3ccccc32)cc1[N+](=O)[O-] | inconclusive: 15.8 µM [quencher, side channel, partial curve]
COc1ccc(/C=N/NC(=S)Nc2cccc(C(=O)O)c2)cc1OC | inconclusive: 2.82 µM [quencher, side channel, single point]
Cc1ccc2[nH]c(=O)c(C3C(C#N)=C(N)Oc4c3ccc3cccnc43)cc2c1 (stereo not drawn) | inconclusive: 25.1 µM [quencher, side channel, partial curve]
